# Out of some 310,000 compounds screened, about 2,200 (0.71%) showed an effect of 50% or more. Effects have a minus sign here. This is one part of the list.
# Target: human ether-à-go-go-related gene (hERG) potassium channel (human, UniProt Q12809)
# Assay: primary screen, population patch clamp on CHO cells stably expressing hERG
# Sequence of human ether-à-go-go-related gene (hERG) potassium channel (Q12809 whole entry, looked up): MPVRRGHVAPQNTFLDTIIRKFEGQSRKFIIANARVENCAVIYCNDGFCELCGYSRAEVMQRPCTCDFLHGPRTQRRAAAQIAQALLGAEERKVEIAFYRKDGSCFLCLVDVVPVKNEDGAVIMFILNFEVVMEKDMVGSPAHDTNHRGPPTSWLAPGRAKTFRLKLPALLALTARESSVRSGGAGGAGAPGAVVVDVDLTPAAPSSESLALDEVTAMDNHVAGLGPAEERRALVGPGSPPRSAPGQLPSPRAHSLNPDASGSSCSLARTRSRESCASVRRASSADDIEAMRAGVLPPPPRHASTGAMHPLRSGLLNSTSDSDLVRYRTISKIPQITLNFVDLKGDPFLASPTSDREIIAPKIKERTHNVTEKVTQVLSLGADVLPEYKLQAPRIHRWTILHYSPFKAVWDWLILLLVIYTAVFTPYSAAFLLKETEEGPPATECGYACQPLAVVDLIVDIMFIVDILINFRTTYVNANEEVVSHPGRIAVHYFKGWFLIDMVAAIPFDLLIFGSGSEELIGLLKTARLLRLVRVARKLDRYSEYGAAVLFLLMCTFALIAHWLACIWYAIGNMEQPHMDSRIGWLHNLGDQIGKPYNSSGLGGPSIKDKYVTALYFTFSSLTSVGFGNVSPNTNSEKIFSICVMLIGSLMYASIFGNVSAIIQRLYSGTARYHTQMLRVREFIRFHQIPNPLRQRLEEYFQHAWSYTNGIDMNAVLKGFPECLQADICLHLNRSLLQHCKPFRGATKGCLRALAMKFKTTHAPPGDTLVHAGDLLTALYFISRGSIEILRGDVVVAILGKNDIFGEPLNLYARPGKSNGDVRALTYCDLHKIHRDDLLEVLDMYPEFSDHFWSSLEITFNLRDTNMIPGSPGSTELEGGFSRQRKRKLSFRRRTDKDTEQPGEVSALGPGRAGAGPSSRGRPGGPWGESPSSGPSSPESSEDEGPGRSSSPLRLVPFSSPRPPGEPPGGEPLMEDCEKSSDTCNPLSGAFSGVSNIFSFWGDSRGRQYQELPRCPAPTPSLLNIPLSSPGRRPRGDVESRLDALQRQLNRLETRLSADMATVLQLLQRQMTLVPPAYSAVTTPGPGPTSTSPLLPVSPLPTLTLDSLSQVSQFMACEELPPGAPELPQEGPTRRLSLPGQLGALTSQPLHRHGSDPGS
row,Compound,"hERG current change (%, negative = inhibition) at 1uM"
1,COc1ccc(N2C(=O)c3ccccc3NC2c2ccc(OC)c(CSc3ccccn3)c2)cc1 (centres unmarked),11.1%
2,Fc1ccc(-c2oncc2-c2nnnn2-c2ccccc2)cc1F,-4.25%
3,CCOc1ccc(S(=O)(=O)c2c(C(=O)c3ccccc3)cnc3cc4c(cc23)OCCO4)cc1,9.27%
4,Cc1c(Nc2c3ccccc3nc3ccccc23)c(=O)n(-c2ccccc2)n1C,-47.4%
5,C/C(=N\NC(=O)c1ccccc1[N+](=O)[O-])c1c(O)cc(C)oc1=O,24%
6,CCC(C)NC(=O)CO/N=C/c1ccccc1OC(F)F (centres unmarked),1.8%
7,O=C(CSc1ncccn1)N1CCN(S(=O)(=O)c2ccccc2)CC1,7.76%
8,C=CCNC(=O)/C(=C/c1cn(-c2ccccc2)nc1-c1cccc([N+](=O)[O-])c1)NC(=O)c1ccccc1,-1.23%
9,O=C1CSC(c2cccnc2)N1CC1CC1 (centres unmarked),9.36%
10,Cn1c(N)c(C(=O)CSc2n[nH]c(-c3ccccc3)n2)c(=O)n(C)c1=O,1.83%
11,Cc1cc(C(=O)NCC(=O)OCC(=O)NCC2CCCO2)ccc1[N+](=O)[O-] (centres unmarked),11.3%
12,Cc1ccc(N2C(=O)CC(N3CCN(c4ccc(F)cc4)CC3)C2=O)c(C)c1 (centres unmarked),0.98%
13,CN(Cc1ccccc1F)C(=O)CCNC(=O)c1ccc(C(C)(C)C)cc1,4.24%
14,Cc1ccc(S(=O)(=O)N2CCC3(CC2)OCCO3)c(C)c1,14.4%
15,CN(C)/C=N/C1=C(C#N)C(c2ccc(Br)cc2)c2ccc3ccccc3c2O1 (centres unmarked),18.8%
16,Cc1cccc(OCC(=O)Nc2ccc3c(c2)nc(CCN2CCN(C)CC2)n3C)c1,-6.31%
17,CCOC(=O)C1CCCN(C(=O)c2ccc3c(c2)NC(=O)C(N2CCOCC2)S3)C1 (centres unmarked),9.57%
18,CC(=O)Nc1ccc(S(=O)(=O)NCCSCc2ccccc2Cl)cc1,8.32%
19,Cc1cccc(OCC(=O)N2CCN(C(=O)c3ccc([N+](=O)[O-])cc3)CC2)c1,-38.8%
20,CCOC(=O)CN(C#N)c1nc(C)cc(C)n1,-2.69%
21,O=C(c1c(O)cc(O)cc1O)C1c2c(cc(O)c3c2O[C@H](c2ccc(O)cc2)[C@@H](O)C3)OC1c1ccc(O)cc1 (some centres unmarked),13.1%
22,Cc1ccc(/C=N/NC(=O)CN2C(=O)CSc3ccccc32)o1,12.9%

row,Compound,"hERG current change (%, negative = inhibition) at 1uM"
1,COc1ccc(C2C(C(=O)N3CCN(c4ccccc4F)CC3)c3ccccc3C(=O)N2C)cc1 (centres unmarked),-5.09%
2,CC(=O)Nc1ccc(S(=O)(=O)NCC(=O)OCC(=O)N2CCN(c3ccccc3)CC2)cc1,3.81%
3,O=C1CSC(c2cccc([N+](=O)[O-])c2)N1CCc1ccccc1 (centres unmarked),13.6%
4,COc1ccccc1NC(=O)CSc1ncc(CO)n1Cc1ccc(F)cc1,8.66%
5,N#C/C(=C/c1ccc(-c2ccc(S(N)(=O)=O)cc2)o1)c1nc2ccccc2s1,7.66%
6,Clc1ccc(CN2CCCCCC2)cc1.O=C(O)C(=O)O,13.4%
7,CCc1ccc(CCC(=O)Nc2ccc(OC)cc2)o1,9.76%
8,COc1ccccc1CNC(=O)Cn1cc2c(n1)CCCC2,4.62%
9,Cc1ccccc1NC(=S)N1CCN(C(=O)c2ccco2)CC1,12.1%
10,CCOc1ccc(S(=O)(=O)Nc2nc3ccc(OC)cc3s2)cc1,11.7%
11,O=C(O)/C=C/C(=O)N1CCN(C(c2ccccc2)c2ccccc2)CC1,17.3%
12,CN1CCN(c2ncc3c(n2)CC(c2ccccc2F)CC3=O)CC1 (centres unmarked),9.18%
13,CCc1cc2c(NC3CCCC3)ncnc2s1.Cl,5.39%
14,O=C(COC(=O)COc1cccc(F)c1)NCCC1=CCCCC1,15.2%
15,CN(C)c1cccc(C(=O)NN2C(=O)NC3(CCCCC3)C2=O)c1,12.5%
16,O=C(C1CCCN(S(=O)(=O)c2cccc3nonc23)C1)N1CCC(Cc2ccccc2)CC1 (centres unmarked),-0.208%
17,NS(=O)(=O)c1ccc(NC(=S)Nc2ccc(OCc3ccccc3)cc2)cc1,18.5%
18,C=CCN1C(=O)c2cccc3c(N4CCCCC4)ccc(c23)C1=O,5.49%
19,Cc1ccc2[nH]c(C(=O)N3CCOCC3)cc2c1,17.9%
20,CC1CN(Cc2nnc(-c3ccccc3)o2)CC(C)O1.Cl (centres unmarked),6.49%
21,O=C(Nc1ccc2nc(-c3ccco3)[nH]c2c1)c1cccs1,9.77%
22,CC(=O)NCc1nc2ccccc2n1Cc1ccccc1F,10.2%

row,Compound,"hERG current change (%, negative = inhibition) at 1uM"
1,O=C(NC1=C(Nc2ccc(Cl)cc2)C(=O)c2ccccc2C1=O)c1ccccc1,5.97%
2,O=C(Cn1sc2ccccc2c1=O)NC12CC3CC(CC(C3)C1)C2,13%
3,O=C(c1cccc(Cl)c1)N1CCn2c1nc1ccccc12,6.26%
4,CCN1C(=O)C2C(c3cccc(F)c3)NC(CC)(C(=O)OC)C2C1=O (centres unmarked),17.7%
5,CCOc1ccc(CCNC(=O)COC(=O)CCc2cc(OC)c(OC)c(OC)c2)cc1OCC,-9.97%
6,CCc1nc2ccccc2n1Cc1cc(=O)n2cc(C)ccc2n1,11.2%
7,O=C(CN1CCCCC1)N/N=C/c1ccccc1OCc1ccccc1,-0.21%
8,CCN(Cc1ccccc1)C(=O)C1CCN(CC2CC=CCC2)CC1.O=C(O)C(=O)O (centres unmarked),0.726%
9,CC(=O)Nc1ccc(S(=O)(=O)NNC(=S)NCc2ccco2)cc1,11.5%
10,COCCN(C(=O)c1csnn1)C(C(=O)NC1CCCCC1)c1cccs1 (centres unmarked),-8.97%
11,COc1ccc(CN(C)C(=O)c2ccccc2Sc2ccccc2C#N)cc1OC,7.45%
12,Cc1ccc(/C=N/N2CCN(c3ccc(Cl)cc3)CC2)o1,11.4%
13,O=C(O)CC(C(=O)N(c1ccccc1)c1ccccc1)N1CCOCC1 (centres unmarked),1.13%
14,COc1cc2c(c(OC)c1OC)-c1c(cc3c(c1OC)OCO3)C1OC2[C@@H](C)[C@H]1C (some centres unmarked),9.89%
15,COC(=O)C1C(O)=C(C=Nc2ccc3ccccc3c2)C(=O)CC1(C)C (centres unmarked),11.4%
16,Cc1ccc(-n2c(C)nc3c(cnn3-c3ccccc3Cl)c2=O)cc1C,14.7%
17,O=C(CSc1nnc(CNC(=O)c2c(F)cccc2Cl)o1)NCc1ccc(F)cc1,9.08%
18,COc1ccccc1CNC(=O)Cn1cc(Br)ccc1=O,8.67%
19,CCOc1ccc(NC(=O)N2CCC(NC(=O)C(Cc3ccc(OC)c(OC)c3)NC(C)=O)CC2)cc1 (centres unmarked),8.06%
20,CCn1nc(C)c(/C=N/NC(=O)CSc2ccccn2)c1C,10.3%
21,O=C(CCc1nnc(CCCc2ccccc2)o1)NCCc1ccco1,6.06%
22,CCOC(=O)CC(=O)CSc1nc(-c2cccnc2)ccc1C#N,9.36%

row,Compound,"hERG current change (%, negative = inhibition) at 1uM"
1,COCCNC(=O)Nc1ccc2nc(-c3ccco3)c(-c3ccco3)nc2c1,1.54%
2,C=CCNC(=S)Nc1sc2c(c1C(=O)OCC)CCN(C(=O)OCC)C2,10.2%
3,COc1ccc(/C=C/C(=O)N2CCCC2)cc1OC,3.99%
4,O=C(NC1CCCC1)C(c1ccccc1F)N(C(=O)Cc1cccs1)c1ccc2c(c1)OCCO2 (centres unmarked),5.88%
5,Cc1ccc(NC(=O)CCNC(=O)c2ccc([N+](=O)[O-])cc2)cc1C,9.2%
6,Cc1ccc(NC(=O)C(C)OC(=O)/C=C/c2ccccc2)cc1S(=O)(=O)N1CCOCC1 (centres unmarked),8.54%
7,Cc1cccc(N2C(=O)C(O)=C(C(=O)c3cccs3)C2c2ccc(C(C)C)cc2)n1 (centres unmarked),4.41%
8,Cc1ccc(N2C(=O)CC(Sc3nc(-c4ccccc4)c4cc(Cl)ccc4n3)C2=O)c(C)c1 (centres unmarked),3.4%
9,CN(/C=C/C(=O)C(F)(F)F)Cc1ccccc1,9.63%
10,CSc1ccc(C#N)cc1NC(=O)c1ccc(Cl)cc1Cl,-1.58%
11,O=S(=O)(c1cccc(-c2nnc3n2CCCCC3)c1)N1CCCC1,8.43%
12,CCc1cccc(NC(=O)CN(C)S(=O)(=O)c2cccc3nsnc23)c1,-0.523%
13,CCOc1ccccc1NC(=O)COC(=O)C(Cc1ccccc1)NC(=O)c1ccco1 (centres unmarked),6.03%
14,COCN(C#N)c1nc(OC)nc(OC)n1,14.7%
15,CCOC(=O)c1ccc2c(c1)nc(C1CCN(S(=O)(=O)c3cccs3)CC1)n2CC,-12.3%
16,Nc1nc(Cl)cc(Oc2ccccc2F)n1,10.3%
17,CCc1ccc(CCN2C(=O)c3ccccc3C2=O)nc1,-0.128%
18,O=C(OCc1ccccc1)N1CCOCCN(C(=O)OCc2ccccc2)CCOCC1,-7.02%
19,COc1ccc(NC(=O)CCC(=O)OC(C(=O)c2ccccc2)c2ccccc2)cc1 (centres unmarked),8.31%
20,COc1ccc(CC(C)N2CCN(c3ccccc3OC)CC2)cc1OC (centres unmarked),-42.2%
